PMC5638819
These are yes or no findings as the source states them, for the method shown. Binding seen in cells or lysates may run through a third protein. Some results given as binding are weak or reduced against the parent protein; the word gives no strength.

By UniProt entry, the sequences of proteins in these tests, tags left out.
UniProt Q15797: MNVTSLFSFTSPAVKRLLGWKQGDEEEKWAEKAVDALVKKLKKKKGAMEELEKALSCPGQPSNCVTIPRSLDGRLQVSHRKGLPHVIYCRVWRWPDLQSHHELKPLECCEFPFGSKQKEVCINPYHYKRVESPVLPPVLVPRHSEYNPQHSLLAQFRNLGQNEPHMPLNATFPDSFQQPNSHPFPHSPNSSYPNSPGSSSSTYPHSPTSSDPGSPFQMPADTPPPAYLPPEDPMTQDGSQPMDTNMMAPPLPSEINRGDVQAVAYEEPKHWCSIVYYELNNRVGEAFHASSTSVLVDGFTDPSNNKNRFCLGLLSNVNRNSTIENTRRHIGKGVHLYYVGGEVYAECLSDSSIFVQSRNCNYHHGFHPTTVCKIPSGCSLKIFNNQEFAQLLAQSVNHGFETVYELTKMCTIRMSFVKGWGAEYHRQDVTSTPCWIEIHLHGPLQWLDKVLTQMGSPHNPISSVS
UniProt Q15796: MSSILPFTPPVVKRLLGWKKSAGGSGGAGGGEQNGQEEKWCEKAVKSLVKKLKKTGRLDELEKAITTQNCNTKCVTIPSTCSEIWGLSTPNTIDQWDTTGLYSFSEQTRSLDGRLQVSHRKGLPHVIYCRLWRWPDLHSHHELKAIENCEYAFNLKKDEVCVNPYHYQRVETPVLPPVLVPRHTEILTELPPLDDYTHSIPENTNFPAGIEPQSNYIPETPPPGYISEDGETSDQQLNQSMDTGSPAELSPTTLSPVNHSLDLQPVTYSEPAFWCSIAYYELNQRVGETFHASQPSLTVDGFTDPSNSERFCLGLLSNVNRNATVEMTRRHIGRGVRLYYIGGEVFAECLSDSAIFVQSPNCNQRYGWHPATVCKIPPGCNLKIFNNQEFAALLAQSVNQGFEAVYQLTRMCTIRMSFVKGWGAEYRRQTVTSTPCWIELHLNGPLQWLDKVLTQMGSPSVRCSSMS
UniProt P84022: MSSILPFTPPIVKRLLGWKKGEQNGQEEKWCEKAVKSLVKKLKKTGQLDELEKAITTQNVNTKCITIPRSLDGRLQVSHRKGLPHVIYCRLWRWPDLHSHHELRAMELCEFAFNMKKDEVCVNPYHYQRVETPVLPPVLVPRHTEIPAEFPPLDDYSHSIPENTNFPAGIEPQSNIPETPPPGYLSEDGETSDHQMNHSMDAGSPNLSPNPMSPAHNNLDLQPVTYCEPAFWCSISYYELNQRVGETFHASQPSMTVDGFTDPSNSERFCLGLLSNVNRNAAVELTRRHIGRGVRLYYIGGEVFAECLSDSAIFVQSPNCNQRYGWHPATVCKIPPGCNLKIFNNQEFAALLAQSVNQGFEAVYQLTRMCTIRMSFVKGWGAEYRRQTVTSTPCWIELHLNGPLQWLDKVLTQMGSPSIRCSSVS

Key:
[1] = target: T1, ETS-related gene (ERG) (human (endogenous in HUVEC and HSEC)) (UniProt P11308); test: proximity ligation; Duolink PLA on fixed HUVEC (4% paraformaldehyde) after 30 min TGFβ2 treatment; signal in the nucleus
T1 sequence: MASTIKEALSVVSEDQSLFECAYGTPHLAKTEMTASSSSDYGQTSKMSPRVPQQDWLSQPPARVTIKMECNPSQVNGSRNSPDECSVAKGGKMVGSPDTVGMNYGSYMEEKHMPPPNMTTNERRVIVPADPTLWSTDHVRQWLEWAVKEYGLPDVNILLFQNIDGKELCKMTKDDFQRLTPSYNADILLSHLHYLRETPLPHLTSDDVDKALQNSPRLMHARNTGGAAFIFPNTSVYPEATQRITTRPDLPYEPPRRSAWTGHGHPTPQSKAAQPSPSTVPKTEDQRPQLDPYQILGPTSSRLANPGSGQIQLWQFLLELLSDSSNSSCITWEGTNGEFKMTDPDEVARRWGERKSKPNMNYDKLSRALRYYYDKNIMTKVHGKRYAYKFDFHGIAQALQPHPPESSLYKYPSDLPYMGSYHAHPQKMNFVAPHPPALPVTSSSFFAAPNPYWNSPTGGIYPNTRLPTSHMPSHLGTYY

[2] = target: T1, ETS-related gene (ERG) (human (endogenous in HUVEC and HSEC)); test: co-IP; lysate of HSEC (hepatic sinusoidal endothelial cells from transplant patients), untreated, immunoprecipitated with anti-ERG, blotted for SMADs
[3] = target: T1, ETS-related gene (ERG) (human (endogenous in HUVEC and HSEC)); test: co-IP; HUVEC whole cell lysate (1 mg) immunoprecipitated with mouse anti-ERG or mouse IgG and Protein A/G agarose overnight at 4 °C, blotted for SMADs; cells treated with PBS or TGFβ2 (10 ng/ml, 30 min) after 4 h serum starvation; some lysates treated with Benzonase (500 units, 1 h); lysis buffer 50 mM Tris pH 7.5, 150 mM NaCl, 0.1% Igepal, 1 mM EDTA, 0.25% sodium deoxycholate
[4] = target: T1, ETS-related gene (ERG) (human (endogenous in HUVEC and HSEC)); test: proximity ligation; PLA on HSEC, TGFβ2 treatment (Supplementary Fig. 4D)
[5] = target: T1, ETS-related gene (ERG) (human (endogenous in HUVEC and HSEC)); test: condition: only cells pretreated with SB-431542 (10 μM, 1 h); co-IP; HUVEC pretreated with SB-431542 (1 h) before TGFβ2; whole cell lysate immunoprecipitated with mouse anti-ERG, blotted for SMAD3

Row | Substance | binding [1] | binding [2] | binding [3] | binding [4] | binding [5]
1 | SMAD1 (from UniProt Q15797 1-465) | no binding | no binding | no binding | – | –
2 | SMAD2 (from UniProt Q15796 1-467) | – | – | binds | – | –
3 | SMAD3 (from UniProt P84022 1-425) | binds | binds | binds | binds | no binding
4 | pSMAD3 (Ser423/425) (from UniProt P84022 1-425) | binds | – | binds | – | –
